{"source": "PubChem BioAssay AID624417", "about": "(National Center for Advancing Translational Sciences (NCATS), 2012)", "note": "The whole screen tested about 410,000 compounds, of which about 6,400 (1.6%) were called active. This list was built around the results that the source calls inconclusive (neither active nor inactive); the mix of calls is not that of the screen. Calls follow the shape of the dose curve; as a rule, active = well fitted inhibition curve with a large enough effect; inconclusive = small, poorly fitted or top-dose-only effect; inactive = no such curve, though single readings can be large or run the other way. Potencies of inconclusive entries are left out as doubtful fits. Potency is read from the fitted curve at half-maximal effect; tags tell the direction and shape of the fitted curve."}
{"molecular_target": "Glucagon-like peptide 1 receptor (Homo sapiens) (UniProt P43220)", "sequence (P43220 whole entry, looked up)": "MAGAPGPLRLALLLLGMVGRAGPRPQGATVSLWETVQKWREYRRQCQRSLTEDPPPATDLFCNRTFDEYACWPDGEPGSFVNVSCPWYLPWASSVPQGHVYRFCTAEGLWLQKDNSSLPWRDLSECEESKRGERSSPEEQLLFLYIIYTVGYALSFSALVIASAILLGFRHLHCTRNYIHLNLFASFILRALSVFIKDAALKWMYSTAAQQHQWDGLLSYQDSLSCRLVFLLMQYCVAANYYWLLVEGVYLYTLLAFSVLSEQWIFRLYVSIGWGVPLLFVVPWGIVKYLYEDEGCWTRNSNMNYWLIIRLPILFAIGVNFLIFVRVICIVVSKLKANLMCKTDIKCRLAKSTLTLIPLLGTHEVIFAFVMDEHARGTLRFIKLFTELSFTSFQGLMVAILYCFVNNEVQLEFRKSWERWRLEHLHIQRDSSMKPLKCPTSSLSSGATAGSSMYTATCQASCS", "assay": "qHTS of GLP-1 Receptor Inverse Agonists (Inhibition Mode); also: nearly all actives have a fitted effect of over 55% in size", "settings": "HEK293 GLP-1R CRE-luciferase, luminescence, 24 h, GLP-1R form is constitutively active; series mostly up to 38.3 µM", "how_it_was_run": "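GLP-1R inverse agonism mode: basal reporter luminescence in engineered HEK293 cells measured after one day of compound exposure at 37 deg C, with a 12 min room-temperature detection step.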"}
{"compound": "Cc1nc(-c2ccccc2)sc1CCNS(=O)(=O)c1ccc(Br)cc1", "Potency": "inconclusive [inhibitor, single point]"}
{"compound": "CN(C)CCCOc1ccc(-c2ccc3nccn3c2)cn1", "Potency": "inconclusive [inhibitor, single point]"}
{"compound": "O=C(c1ccc(OCCN2CCCCC2)cc1)c1c(-c2ccc(O)cc2)sc2cc(O)ccc12", "Potency": "inconclusive [inhibitor, partial curve, poor fit]"}
{"compound": "Cc1ccc(/C=C/C(=O)c2cc(Br)ccc2OC(=O)c2ccco2)cc1", "Potency": "inconclusive [inhibitor, single point]"}
{"compound": "CC(C)C1C(c2ccccc2)N(C)C(c2ccccc2)CC1(O)c1ccccc1", "note": "(configuration not stated)", "Potency": "inactive"}
{"compound": "Oc1ccc(-c2[nH]nc(-c3ccccc3)c2-c2nc3ccccc3[nH]2)cc1", "Potency": "inconclusive [inhibitor, partial curve, poor fit]"}
{"compound": "CCNC(=O)Cc1ccc(NC(=O)N2CCCCc3ccccc32)cc1", "Potency": "inconclusive [inhibitor, partial curve]"}
{"compound": "COC(=O)[C@@]12C[C@@H](CC(=O)NCCC(C)C)C(=O)N(Cc3ccc4c(c3)OCO4)C1=CCC(C)(C)C2", "Potency": "inconclusive [inhibitor, partial curve, poor fit]"}
{"compound": "COc1cc(NC(=O)CN2C(=O)C(C)N(c3ccc(C)cc3)C2=O)cc(OC)c1", "note": "(configuration not stated)", "Potency": "inconclusive [inhibitor, partial curve, poor fit]"}
{"compound": "CSc1nsc2nc(=O)c(/C=C3\\C(C)=Nc4ccc(C)cc43)c(N)n12", "Potency": "inconclusive [inhibitor, full curve, poor fit]"}
{"compound": "CCOc1ccc2ccccc2c1CNCCc1ccc(S(N)(=O)=O)cc1", "Potency": "inconclusive [inhibitor, single point]"}
{"compound": "CCCCNC(=S)Nc1ccc(-c2nc3ccc(C)cc3s2)cc1", "Potency": "inconclusive [inhibitor, single point]"}
{"compound": "CCN(CC)c1ccc(/C=N/NC(=O)c2cccc(S(=O)(=O)Nc3ccccc3OC)c2)cc1", "Potency": "inconclusive [inhibitor, partial curve, poor fit]"}
{"compound": "Cc1cccc(NCc2ccc(Br)cc2)n1", "Potency": "inconclusive [inhibitor, single point]"}
{"compound": "O=C(Nc1ccc(Cl)cc1F)C1CC1c1ccccc1", "note": "(configuration not stated)", "Potency": "inconclusive [inhibitor, single point]"}
{"compound": "CC1(C)Cc2nc(-c3ccccc3)nc(SCC(O)CO)c2CO1", "note": "(configuration not stated)", "Potency": "inactive"}
{"compound": "CCOC(=O)CN1CCC(c2cc(-c3ccc(Cl)cc3)n[nH]2)CC1", "Potency": "inconclusive [inhibitor, partial curve, poor fit]"}
